Data published in PMC8073005, “Antifungal Activity and DNA Topoisomerase Inhibition of Hydrolysable Tannins from Punica granatum L” (International Journal of Molecular Sciences, 2021).

target: topoisomerase II from Candida albicans (Candida albicans, UniProt P87078); experiment: biochemical
UniProt P87078, sequence (P87078 whole entry, looked up): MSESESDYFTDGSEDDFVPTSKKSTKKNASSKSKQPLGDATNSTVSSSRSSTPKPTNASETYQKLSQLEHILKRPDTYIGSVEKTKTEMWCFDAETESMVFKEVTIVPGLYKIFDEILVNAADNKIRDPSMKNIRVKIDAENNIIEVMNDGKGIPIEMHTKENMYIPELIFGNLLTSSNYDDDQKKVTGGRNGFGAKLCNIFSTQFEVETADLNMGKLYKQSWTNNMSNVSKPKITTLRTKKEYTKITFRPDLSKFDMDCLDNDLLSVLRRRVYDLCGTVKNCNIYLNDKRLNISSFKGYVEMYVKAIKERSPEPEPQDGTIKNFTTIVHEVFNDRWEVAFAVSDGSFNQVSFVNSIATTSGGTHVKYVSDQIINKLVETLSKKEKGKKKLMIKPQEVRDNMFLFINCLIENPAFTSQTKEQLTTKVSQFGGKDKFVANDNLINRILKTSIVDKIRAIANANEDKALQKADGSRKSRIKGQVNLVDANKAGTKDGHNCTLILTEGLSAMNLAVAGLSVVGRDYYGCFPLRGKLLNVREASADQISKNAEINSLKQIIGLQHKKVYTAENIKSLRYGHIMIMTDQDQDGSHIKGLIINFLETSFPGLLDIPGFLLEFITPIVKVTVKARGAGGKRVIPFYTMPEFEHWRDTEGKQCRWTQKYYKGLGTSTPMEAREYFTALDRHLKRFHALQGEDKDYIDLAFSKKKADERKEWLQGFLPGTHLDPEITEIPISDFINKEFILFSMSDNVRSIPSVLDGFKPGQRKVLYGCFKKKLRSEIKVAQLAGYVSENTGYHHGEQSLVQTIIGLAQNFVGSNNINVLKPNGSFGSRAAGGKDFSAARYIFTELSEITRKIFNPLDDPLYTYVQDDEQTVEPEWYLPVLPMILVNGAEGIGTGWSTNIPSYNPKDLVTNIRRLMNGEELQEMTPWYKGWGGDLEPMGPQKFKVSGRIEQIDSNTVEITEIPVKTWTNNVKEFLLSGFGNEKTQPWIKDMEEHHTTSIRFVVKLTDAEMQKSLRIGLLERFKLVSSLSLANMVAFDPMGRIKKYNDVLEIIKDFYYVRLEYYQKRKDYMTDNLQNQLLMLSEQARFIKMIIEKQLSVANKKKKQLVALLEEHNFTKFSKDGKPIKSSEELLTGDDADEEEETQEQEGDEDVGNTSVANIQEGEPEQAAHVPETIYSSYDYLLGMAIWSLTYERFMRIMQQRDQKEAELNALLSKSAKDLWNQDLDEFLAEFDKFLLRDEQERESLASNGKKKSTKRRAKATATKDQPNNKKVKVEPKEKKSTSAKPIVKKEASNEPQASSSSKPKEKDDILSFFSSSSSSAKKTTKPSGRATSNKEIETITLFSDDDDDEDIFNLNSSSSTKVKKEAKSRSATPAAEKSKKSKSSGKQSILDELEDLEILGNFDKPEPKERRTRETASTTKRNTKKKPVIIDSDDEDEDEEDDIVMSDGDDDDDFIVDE

Structure (SMILES)	IC50
O=C1OC[C@H]2OC(O)[C@H](O)[C@@H](O)[C@@H]2OC(=O)c2cc(O)c(O)c(O)c2-c2c(O)c(O)c3oc(=O)c4c(c(O)c(O)c5oc(=O)c2c3c54)-c2c1cc(O)c(O)c2O (mixture of isomers) [Punicalin, punicalin]	40.7 ± 0.8 µM
O=c1oc2c(O)c(O)cc3c(=O)oc4c(O)c(O)cc1c4c23 [Ellagic Acid, ellagic acid]	53.9 ± 0.2 µM
COc1cc([C@@H]2c3cc4c(cc3[C@@H](O[C@@H]3O[C@@H]5CO[C@@H](C)O[C@H]5[C@H](O)[C@H]3O)[C@H]3COC(=O)[C@H]23)OCO4)cc(OC)c1O [Etoposide, etoposide, reference compound]	15.9 ± 0.7 µM
O=C1O[C@H]2[C@@H]3OC(=O)c4cc(O)c(O)c(O)c4-c4c(O)c(O)c5oc(=O)c6c(c(O)c(O)c7oc(=O)c4c5c76)-c4c(cc(O)c(O)c4O)C(=O)OC[C@H]3OC(O)[C@@H]2OC(=O)c2cc(O)c(O)c(O)c2-c2c1cc(O)c(O)c2O (mixture of isomers) [Punicalagin, punicalagin]	4.6 ± 0.4 µM
